In paper PMC4583372:
Substitutions are numbered along the chain they refer to. No constants are given. Whether binding was seen depends on the method and setting. Binding seen in cells or lysates may run through a third protein. Some binding calls cover weakened binding; strength is not graded here.

Chains of the proteins cited; added tags and fusions are not shown.
UniProt P32958: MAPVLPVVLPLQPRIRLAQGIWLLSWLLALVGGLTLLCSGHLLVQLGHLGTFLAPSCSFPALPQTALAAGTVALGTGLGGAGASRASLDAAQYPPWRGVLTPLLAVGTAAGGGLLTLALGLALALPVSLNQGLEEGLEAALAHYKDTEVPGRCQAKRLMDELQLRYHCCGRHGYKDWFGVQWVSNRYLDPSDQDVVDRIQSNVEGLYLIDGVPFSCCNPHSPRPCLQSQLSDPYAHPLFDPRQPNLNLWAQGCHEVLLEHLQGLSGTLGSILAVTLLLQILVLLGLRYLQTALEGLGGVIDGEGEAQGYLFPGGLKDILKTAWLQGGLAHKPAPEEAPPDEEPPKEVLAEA

Experiments:
[1] = target: ROM-1 (rod outer segment protein 1) (mouse (endogenous in retina)) (UniProt P32958); assay: co-IP; retinal extracts from rds-/- mice (IP with ROM-1 mAB 2H5) and rom1-/- mice (IP with RDS-CT); western blot for Syn3B
[2] = target: T1, Peripherin-2 also known as RDS (retinal degeneration slow) (mouse (endogenous in retina)) (UniProt P15499); assay: as above
T1 sequence: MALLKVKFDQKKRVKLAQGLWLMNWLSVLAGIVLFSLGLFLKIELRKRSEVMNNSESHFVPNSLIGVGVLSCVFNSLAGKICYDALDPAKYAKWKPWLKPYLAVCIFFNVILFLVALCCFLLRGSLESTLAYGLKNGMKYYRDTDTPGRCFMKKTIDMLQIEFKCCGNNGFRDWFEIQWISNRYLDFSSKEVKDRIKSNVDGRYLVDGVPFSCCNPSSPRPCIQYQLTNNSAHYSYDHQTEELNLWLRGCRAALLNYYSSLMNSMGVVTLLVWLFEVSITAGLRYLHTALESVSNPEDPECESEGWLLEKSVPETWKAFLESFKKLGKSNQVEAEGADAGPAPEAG

[3] = target: ROM-1 (rod outer segment protein 1) (mouse (endogenous in retina)) (UniProt P32958); assay: proximity ligation; Duolink In Situ kit on WT mouse retinal cryosections; paired sections with regular immunofluorescence
[4] = target: T1, Peripherin-2 also known as RDS (retinal degeneration slow) (mouse (endogenous in retina)); assay: as above
[5] = target: T2, C150S-RDS of knockin mice (rds ^C150S/C150S) (mouse (knock-in, in retina)) (UniProt P15499); assay: co-IP; retinal extracts of WT, nrl-/-, rds C150S/C150S, rds Y141C/Y141C, R172W/rds-/- and R172W/rds-/-/nrl-/- mice; detergent not indicated; IP with anti-Syn3B-478 (elution non-reducing, or eluents treated with EndoH) or with RDS antibodies (mAB 2E7 or RDS-CT); western blot
T2 sequence: T1 sequence with C150S

[6] = target: T3, R172W-RDS of transgenic mice (R172W/rds ^-/- and R172W/rds ^-/- /nrl ^-/-) (UniProt P15499); assay: as above
T3 sequence: T1 sequence with R172W

[7] = target: T4, Y141C-RDS of knockin mice (rds ^Y141C/Y141C) (mouse (knock-in, in retina)) (UniProt P15499); assay: as above
T4 sequence: T1 sequence with Y141C

[8] = target: T1, Peripherin-2 also known as RDS (retinal degeneration slow) (mouse (endogenous in retina)); assay: as above
[9] = target: ROM-1 (rod outer segment protein 1) (mouse (endogenous in retina)) (UniProt P32958); assay: co-IP; Triton X-100 extracted WT mouse retinas; IP with RDS, ROM-1 or Syn3B antibodies and protein A sepharose; western blot
[10] = target: T1, Peripherin-2 also known as RDS (retinal degeneration slow) (mouse (endogenous in retina)); assay: as above

Measured: binding

B1: Syntaxin-3 isoform B (Stx3) (protein, UniProt Q64704-2 1-287)
chain: MKDRLEQLKAKQLTQDDDTDEVEIAIDNTAFMDEFFSEIEETRLNIDKISEHVEEAKKLYSIILSAPIPEPKTKDDLEQLTTEIKKRANNVRNKLKSMEKHIEEDEVRSSADLRIRKSQHSVLSRKFVEVMTKYNEAQVDFRERSKGRIQRQLEITGKKTTDEELEEMLESGNPAIFTSGIIDSQISKQALSEIEGRHKDIVRLESSIKELHDMFMDIAMLVENQGAMIDRIENNMDQSVGFVERAVADTKKAVKYQSEARRKKIMIMICCIILAIILASTIGGIFA
binds: all assays above
